Experimental data: PubChem BioAssay AID1645886 (National Center for Advancing Translational Sciences (NCATS), 2021)
In all, about 16,000 compounds went through this assay and about 260 (1.6%) were called active. Inconclusive means that the source gave no clear call. Such entries were picked first, then a sample of the others. Calls come from the whole dose curve; as a rule, active = well fitted inhibition curve with a large enough effect; inconclusive = small, poorly fitted or top-dose-only effect; inactive = no such curve, though single readings can be large or run the other way. No potency is given beside an inconclusive call; the fits are too rough.

Biological target: Rap guanine nucleotide exchange factor 4 (Homo sapiens) (UniProt Q8WZA2)
Assay: Validation qHTS for antagonist of cAMP-regulated guanine nucleotide exchange factor 4 (EPAC2); note: nearly all actives have a fitted effect of over 40% in size;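 for activity, negative = inhibition: 100% = activation by cAMP agonist control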
Conditions: EPAC2 Rap1B BODIPY-GDP exchange, fluorescence; activity, negative = inhibition: at 112 µM (top of the series)
How it was run: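 Fluorescent exchange read-out: 100 nM EPAC2 with 250 nM RAP1B–BODIPY-GDP and 50 uM GDP; BODIPY-GDP release lowers fluorescence. Read at 480/540 nm every 5 min for 30 min at room temperature; normalized to 6.5 mM cAMP.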
Potency is the fitted concentration of half-maximal effect; tags give direction and shape of the fitted curve.

Sequence of UniProt Q8WZA2 (Q8WZA2 whole entry, looked up): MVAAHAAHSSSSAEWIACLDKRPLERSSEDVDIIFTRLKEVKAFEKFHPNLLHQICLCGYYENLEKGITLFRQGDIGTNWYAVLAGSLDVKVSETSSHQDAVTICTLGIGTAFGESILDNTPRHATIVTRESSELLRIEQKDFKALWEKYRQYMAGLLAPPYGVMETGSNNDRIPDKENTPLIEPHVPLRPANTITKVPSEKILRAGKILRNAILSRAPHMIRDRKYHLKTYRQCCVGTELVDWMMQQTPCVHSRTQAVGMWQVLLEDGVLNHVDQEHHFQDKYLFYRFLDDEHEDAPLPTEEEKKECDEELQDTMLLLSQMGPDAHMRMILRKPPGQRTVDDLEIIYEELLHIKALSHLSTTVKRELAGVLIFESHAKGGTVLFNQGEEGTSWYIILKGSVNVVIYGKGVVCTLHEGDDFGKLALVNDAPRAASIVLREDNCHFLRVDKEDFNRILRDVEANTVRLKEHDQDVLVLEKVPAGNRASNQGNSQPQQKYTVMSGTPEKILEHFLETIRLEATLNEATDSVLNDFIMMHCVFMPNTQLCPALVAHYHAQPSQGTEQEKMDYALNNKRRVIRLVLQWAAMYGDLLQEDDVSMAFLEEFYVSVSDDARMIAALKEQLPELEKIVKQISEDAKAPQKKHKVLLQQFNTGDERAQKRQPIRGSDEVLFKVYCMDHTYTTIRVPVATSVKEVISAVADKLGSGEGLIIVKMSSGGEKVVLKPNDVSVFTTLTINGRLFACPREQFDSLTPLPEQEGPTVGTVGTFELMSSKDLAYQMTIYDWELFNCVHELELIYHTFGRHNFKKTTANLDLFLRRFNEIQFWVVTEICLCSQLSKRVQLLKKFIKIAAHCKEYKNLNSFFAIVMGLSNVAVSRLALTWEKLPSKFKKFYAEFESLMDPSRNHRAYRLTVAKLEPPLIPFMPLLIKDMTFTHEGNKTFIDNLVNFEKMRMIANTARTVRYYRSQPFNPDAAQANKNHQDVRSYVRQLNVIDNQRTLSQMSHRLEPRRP

**Q.** With `Cn1cnnc1Sc1ccc(CN2CCOc3ccc(C4=Cc5ccccc5C4)cc3C2)o1` as the compound, how does the Potency read?
**A.** inconclusive [inhibitor, single point]

**Q.** Which Potency does the source give for `CC(C)(C)[C@]1(O)CCN2C[C@H]3c4ccccc4CCc4cccc(c43)[C@@H]2C1` here?
**A.** inconclusive [inhibitor, single point]

**Q.** `O=S1(=O)CCO[C@H]2CCCC[C@@H]2N1Cc1ccccc1F` was tested. Which Potency did it give?
**A.** inconclusive [inhibitor, single point]

**Q.** `Cc1ccc2c(C)nc(N3CCCC(C(=O)NC(C)(C)CO)C3)nc2c1` (centres undefined) was tested. Which “activity, negative = inhibition” value did it give?
**A.** inactive: -14.6%

**Q.** How did the Potency turn out when `NC(=NCc1ccc(Cl)cc1Cl)NC(=O)c1nc(Cl)c(N)nc1N` was run?
**A.** inconclusive [inhibitor, partial curve]

**Q.** With `Cc1cc(-c2ccnc(-n3ncc(C(=O)NCC4COCCO4)c3C3CC3)n2)c(C)s1` (centres undefined) as the compound, how does the “activity, negative = inhibition” value read?
**A.** inactive: -27.2%

**Q.** For `Cc1cccc(CNc2ncncc2-c2ccccc2Cl)c1`, which Potency is on record?
**A.** inconclusive [inhibitor, partial curve]

**Q.** Which Potency does the source give for `O=C(O)C1=CCCNC1` here?
**A.** inconclusive [inhibitor, partial curve]

**Q.** Which “activity, negative = inhibition” value does the source give for `Clc1ccccc1-c1nccc(-n2ccnc2)n1` here?
**A.** inactive: -21.2%

**Q.** `O=C(O)COC(=O)Cc1ccccc1Nc1c(Cl)cccc1Cl` was tested. Which Potency did it give?
**A.** inconclusive [inhibitor, full curve]

**Q.** How did the Potency turn out when `CS(=O)(=O)c1ccc(Cn2c3c(c4cc(F)cc(F)c42)CCC[C@H]3CC(=O)O)cc1` was run?
**A.** inconclusive [inhibitor, partial curve]

**Q.** Which “activity, negative = inhibition” value does the source give for `C=C1C[C@@]23C[C@@]1(O)CCC2[C@@]12C=CC(O)[C@](C)(C(=O)O1)C2C3C(=O)O` (some centres undefined) here?
**A.** inactive: -2.68%

**Q.** For `COc1cccc(Cn2c(=O)c(C)nc3cnc(OCc4ccccc4)nc32)c1`, which Potency is on record?
**A.** inconclusive [inhibitor, full curve, poor fit]

**Q.** For `COc1cccc(-c2nccc(NCc3cccnc3)n2)c1`, which Potency is on record?
**A.** inconclusive [inhibitor, partial curve, poor fit]

**Q.** `COc1ccc(-c2[nH]ncc2CN2CCOc3c(cc(-c4cccc(OC)n4)cc3OC)C2)cc1` was tested. Which “activity, negative = inhibition” value did it give?
**A.** inactive: 5.98%

**Q.** With `FC(F)(F)c1ccccc1-c1nccc(NCc2cccs2)n1` as the compound, how does the Potency read?
**A.** inconclusive [inhibitor, partial curve]

**Q.** How did the Potency turn out when `C=CCCCCCCCCCCC/C=C/C(O)COC(C)=O` (centres undefined) was run?
**A.** inconclusive [inhibitor, full curve, poor fit]

**Q.** Which Potency does the source give for `CCCCCCCCCCCCN1[C@@H](CC(=O)OC)c2cc(C(F)(F)F)ccc2S1(=O)=O` here?
**A.** inconclusive [inhibitor, partial curve, poor fit]

**Q.** How did the Potency turn out when `CC1CC(OC(=O)C(O)c2ccccc2)CC(C)(C)N1C` (centres undefined) was run?
**A.** inconclusive [inhibitor, partial curve]
